# Data from publication PMC4336329 (PLoS ONE, 2015).
# In all, about 310,000 compounds went through this assay and about 14,000 (4.5%) showed an effect of 50% or more. Effects have a minus sign here. This is one part of the list.
# Target: human ether-à-go-go-related gene (hERG) potassium channel (human, UniProt Q12809)
# Test: primary screen, population patch clamp on CHO cells stably expressing hERG
# 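Also: peak tail current of the secondary pulse compared with the same well before compound.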
# Sequence of human ether-à-go-go-related gene (hERG) potassium channel (Q12809 whole entry, looked up): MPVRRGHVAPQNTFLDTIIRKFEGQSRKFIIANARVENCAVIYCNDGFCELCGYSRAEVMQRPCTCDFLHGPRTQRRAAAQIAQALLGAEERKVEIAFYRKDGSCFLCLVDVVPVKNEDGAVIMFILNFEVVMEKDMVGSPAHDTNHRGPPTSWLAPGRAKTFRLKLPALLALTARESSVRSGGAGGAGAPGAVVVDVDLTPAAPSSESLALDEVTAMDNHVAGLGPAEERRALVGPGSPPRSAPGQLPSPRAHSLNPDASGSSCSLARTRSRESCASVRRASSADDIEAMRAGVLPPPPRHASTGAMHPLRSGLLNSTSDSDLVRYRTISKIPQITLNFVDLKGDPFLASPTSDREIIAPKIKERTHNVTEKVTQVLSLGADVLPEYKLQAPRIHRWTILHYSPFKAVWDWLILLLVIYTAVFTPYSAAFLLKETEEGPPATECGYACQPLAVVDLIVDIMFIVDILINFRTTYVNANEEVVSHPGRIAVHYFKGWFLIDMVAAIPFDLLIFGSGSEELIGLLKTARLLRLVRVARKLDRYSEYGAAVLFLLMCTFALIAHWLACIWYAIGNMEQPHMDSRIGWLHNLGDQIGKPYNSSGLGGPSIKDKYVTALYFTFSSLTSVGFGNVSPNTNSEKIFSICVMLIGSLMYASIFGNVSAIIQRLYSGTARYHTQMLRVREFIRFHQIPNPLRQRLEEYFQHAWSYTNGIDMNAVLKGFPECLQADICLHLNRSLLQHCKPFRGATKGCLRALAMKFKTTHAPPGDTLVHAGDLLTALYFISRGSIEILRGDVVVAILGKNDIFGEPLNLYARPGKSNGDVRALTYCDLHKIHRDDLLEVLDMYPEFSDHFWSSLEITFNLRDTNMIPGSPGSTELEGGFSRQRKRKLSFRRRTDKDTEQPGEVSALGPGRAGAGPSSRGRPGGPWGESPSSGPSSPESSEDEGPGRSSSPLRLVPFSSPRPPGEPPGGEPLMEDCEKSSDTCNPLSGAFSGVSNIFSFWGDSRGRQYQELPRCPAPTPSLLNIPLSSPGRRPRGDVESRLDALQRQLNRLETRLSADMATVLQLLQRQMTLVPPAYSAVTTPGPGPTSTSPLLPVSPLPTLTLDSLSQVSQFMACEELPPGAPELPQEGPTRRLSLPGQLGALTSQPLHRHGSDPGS
row,Compound,"hERG current change (%, negative = inhibition) at 10uM [%]"
1,CCOc1ccc(/C=C2\SC(=S)N(C(C(=O)O)c3ccccc3)C2=O)cc1OC (stereo not drawn),5.32
2,CC1CCC(NC(=O)CSc2nnc(-c3cccnc3)o2)CC1 (stereo not drawn),0.0964
3,COc1cccc(NC(=S)Nc2ccc(F)cc2)c1,13.8
4,O=C(O)CCC(=O)Nc1nc2ccccc2s1,-8.56
5,Cc1ccc(C#N)c(SCc2ccccc2F)n1,13.2
6,Cc1ccc2nc(/C(C#N)=C\c3ccc(OC(=O)c4cccs4)cc3)[nH]c2c1,-8.76
7,O=C(/C=C/c1cccc2ccccc12)N1CCOCC1,-1.15
8,COc1ccc(CNC(=O)C(C)NS(=O)(=O)c2ccc(C)cc2)cc1 (stereo not drawn),-0.46
9,CCOC(=O)Nc1ccccc1N1C(=O)c2ccccc2C1=O,8.32
10,Cn1c(=O)c2c(nc(Sc3ncnn3CC(=O)NC3CCCCC3)n2C)n(C)c1=O,2.06
11,Cc1cc(=O)oc2cc(OCC(=O)N3CCCC3)c(Cl)cc12,-3.11
12,CCOc1cc(S(=O)(=O)n2ccnc2)ccc1Cl,16.5
13,Cl.O=C(OC1CCN(CCCl)CC1)C(c1ccccc1)c1ccccc1,11
14,CC(=O)N1CCN(S(=O)(=O)c2cccc(C(=O)NCCc3ccc(Cl)cc3)c2)CC1,-12.1
15,CCOC(=O)N1CCN(c2ncnc3c2[nH]c2ccc(F)cc23)CC1,-2.67
16,Cc1cccc(NC(=O)CSc2ccc(-c3cccnc3)nn2)c1,-16.3
17,COc1ccccc1N1CCN(C(=O)c2cccc3c(=O)c(C)c(-c4ccccc4)oc23)CC1,-31.2
18,C=CCn1c(SCC(=C)C)nc2c1c(=O)[nH]c(=O)n2C,-45.7
19,CC(=O)NC1=NN(C(C)=O)C2(CCCCC2)S1,0.393
20,COc1cc(NC(=S)N2CCC(C(N)=O)CC2)c(OC)cc1Cl,20.3
21,O=C(CN1C(=O)COc2ccc(Cl)cc21)Nc1nccs1,-5.97
22,NS(=O)(=O)c1ccc(NC(=O)CN2CCc3ccccc3C2)cc1,14.3
23,ClCC1CSC(=NC23CC4CC(CC(C4)C2)C3)O1 (stereo not drawn),11.1

row,Compound,"hERG current change (%, negative = inhibition) at 10uM [%]"
1,COc1cc(/C=C/C(=O)N2CCN(CC(O)COc3ccccc3)CC2)cc(OC)c1OC.Cl (stereo not drawn),-8.44
2,Cc1cccc(Nc2nnc(SCC(=O)Nc3ccccc3[N+](=O)[O-])s2)c1C,2.2
3,O=C(CCNC(=O)c1ccccc1Cl)NCCc1ccc(C(F)(F)F)cc1,2.17
4,OCCCc1nc2n(n1)C(c1cccs1)C=C(c1ccccc1)N2 (stereo not drawn),-38.5
5,O=C(c1ccc(Cl)c(S(=O)(=O)N2CCCCC2)c1)N1CCN(Cc2ccccc2)CC1,-59.1
6,O=C(Cc1ccccc1[N+](=O)[O-])Nc1ccc2c(c1)OCO2,-40.1
7,COc1ccnc(N=CNOCc2ccc(C)cc2)c1C#N,1.5
8,O=C(c1ccccc1)c1ccc(O)cc1O,-3.73
9,CN(CC(=O)Nc1ccc(Cl)c(C(F)(F)F)c1)C(=O)c1cc(=O)c2ccccc2o1,-19.1
10,CCOC(=O)CSc1nnc(-c2ccccc2OC)o1,-2.24
11,CCc1ccc(N2CC(O)=C(c3nc4ccccc4c(=O)[nH]3)C2=N)cc1,2.98
12,CCc1ccc(OCCn2cccn2)cc1,8.19
13,O=C(CCN1C(=O)C2C3CCC(C3)C2C1=O)OCC(=O)c1ccc(Br)cc1 (stereo not drawn),-30.2
14,O=c1c(N2CCOCC2)c(N2CCOCC2)c1=O,10.9
15,CCCCNC(=O)OC(C)CNC(=O)Oc1cccc(C)c1 (stereo not drawn),-1.31
16,Cc1ccc(CN2C(=O)S/C(=C\c3ccccc3OCC(=O)O)C2=O)cc1,1.61
17,CC(C)NC(=O)CSc1nc(Cc2cccs2)nc2ccccc12,7.36
18,O=C(CSc1cccc[n+]1[O-])N1CCc2ccccc21,25.9
19,COc1ccc(-c2cc(C(=O)N3CCN(c4ccccc4OC)CC3)no2)cc1OC,-0.868
20,Brc1ccccc1-c1csnn1,7.12
21,C=C(C)c1cccc(C(C)(C)NC(=O)NNC(=O)c2ccccc2O)c1,8.35
22,Cc1ccc(C(=O)NC(=S)NNC(=O)c2ccccc2O)cc1,-24.5
23,Cc1cc(NC(=O)CSc2nnc(-c3ccc(Br)o3)n2Cc2ccccc2)no1,-51.2

row,Compound,"hERG current change (%, negative = inhibition) at 10uM [%]"
1,Br.N=c1n(CCN2CCOCC2)c2ccccc2n1Cc1ccccc1Br,-72.9
2,CCOC(=O)c1cnc2c(c(C)nn2CC)c1Cl,-0.189
3,COc1ccc(C(CNC(=O)CSc2ccc(Br)cc2)N2CCOCC2)cc1 (stereo not drawn),-29.6
4,COc1ccc(-c2cc(C(=O)Nc3ccc(S(=O)(=O)Nc4onc(C)c4C)cc3)c3ccccc3n2)cc1OC,26
5,COc1cccc(NC(=O)CN2C(=O)NC3(CCc4ccccc43)C2=O)c1 (stereo not drawn),16.1
6,O=C(Cc1cccc(Cl)c1)Nc1ccc(Br)cc1,16.4
7,COc1ccc(-c2[nH]ncc2CN(C)CCc2c(C)n[nH]c2C)c(F)c1,13
8,COc1cccc(-c2sc3ccc(OC)cc3c2C#CC2(O)CCCCC2)c1,18.3
9,COc1ccccc1C(=O)OCn1nnc2ccccc2c1=O,-1.17
10,Cc1nc(/C=C/c2ccccc2)cc(/C=C/c2ccccc2)n1,1.93
11,COc1ccc(OC)c(CN2CCCC(CO)C2)c1 (stereo not drawn),0.935
12,Cc1ccc(NC(=O)C2CCN(S(=O)(=O)c3c(C)n[nH]c3C)CC2)c(C)c1,15.7
13,CC1CCN(S(=O)(=O)c2ccc(NC(=O)CN3CCCC(C)C3)cc2)CC1 (stereo not drawn),-11.2
14,CC(Oc1ccccc1F)C(=O)NNC(=O)c1cc2ccccc2o1 (stereo not drawn),11.1
15,C/C(=N\NS(=O)(=O)c1ccc(Br)cc1)c1ccc(-n2ccnc2)cc1,-8.71
16,O=C(Nc1c(C(=O)NCc2ccco2)cnn1-c1ccccc1)c1cccc(F)c1,-29.8
17,O=C(CN1C(=O)c2ccccc2C1=O)Nc1ccc(Cl)cn1,38.3
18,COc1ccc(C(C)=O)cc1COC(=O)CCC(=O)N(CC(C)C)c1c(N)n(CC(C)C)c(=O)[nH]c1=O,2.9
19,CCOC(=O)c1cnn(-c2cc(Oc3ccccc3)ncn2)c1N,9.49
20,CC1(c2ccc([N+](=O)[O-])cc2)NC(=O)NC1=O (stereo not drawn),8.79
21,COC(=O)Cc1cc(=O)oc2cc(O)ccc12,5.29
22,O=C(OCc1nnc(-c2ccccc2)o1)c1ccc(CO)cc1,30.6
23,COc1ccc(CNC(=O)CN2C(=O)COc3ccc(S(=O)(=O)N4CCCC4)cc32)cc1,-2.07

row,Compound,"hERG current change (%, negative = inhibition) at 10uM [%]"
1,O=C(/C=C/c1ccco1)NCc1ccc2c(c1)OCO2,6.92
2,Cn1cccc1Cc1nnc(SCC(=O)N2CCCc3ccccc32)n1-c1ccc(F)cc1,-16
3,Cc1cccc(CCNC(=O)c2nnc(Cc3ccc(Cl)cc3)o2)c1,4.7
4,CCCCn1c2c(c(=O)n(C)c1=O)C(c1ccc(OC)cc1)N1CCCCCC1=N2 (stereo not drawn),-21.9
5,O=C(Cn1c(C(F)(F)F)nc2ccccc21)c1ccc(Cl)cc1,-20.5
6,Cc1nc(C(=O)N2CCCC(N3CCN(c4ccccc4C)CC3)C2)cs1 (stereo not drawn),-39.5
7,Cn1c2c(c(=O)n(C)c1=O)CN(Cc1ccc(F)cc1)CN2,5.51
8,COc1ccc(C2=NN(S(C)(=O)=O)C(c3ccc4nccnc4c3)C2)cc1 (stereo not drawn),-5.74
9,C/C=C/C(=O)OCC(=O)Nc1cccc(F)c1,15.3
10,COCCn1c(N)c(N(Cc2ccccc2)C(=O)C2=COCCO2)c(=O)[nH]c1=O,23.4
11,O=C(CCCn1c(SCC(=O)c2ccc(F)cc2)nc2ccccc2c1=O)NCc1ccccc1,1.75
12,COCCN(C(=O)C(C)C)c1nnc(-c2cccc(C)c2)s1,-19.2
13,Cc1c(Cl)c(C(=O)N2CCCc3ccccc32)nn1C,5.91
14,CC1(C)C2CCC1(CS(=O)(=O)NCc1ccc(C(F)(F)F)cc1)C(=O)C2 (stereo not drawn),-12.2
15,FC(F)Oc1ccc(-c2csc(=Nc3cccnc3)n2CC2CCCO2)cc1 (stereo not drawn),-27.9
16,COc1cc(C[C@H](C)[C@H](C)Cc2ccc3c(c2)OCO3)ccc1O,-4.04
17,O=C1c2ccccc2C(=O)C1c1ccncc1,16.4
18,NS(=O)(=O)c1ccc(CNC(=O)/C=C/c2ccc(Cl)c(Cl)c2)cc1,-1.77
19,CN1C[C@@H]2C(c3ccc(C(F)(F)F)cc3)C3(c4ccc(C#N)cc4)CC2(C3)[C@H]1c1ccccc1 (stereo partly drawn),9.92
20,O=C(Nc1ccccc1N1CCCC1)C1CC(=O)N(Cc2ccccc2)C1 (stereo not drawn),-44.4
21,COc1ccc(NS(=O)(=O)c2ccc(N3CCCC3)c(NC(=S)Nc3cccc(C)c3C)c2)cc1,2.21
